Measured values: article PMC4336329 (PLoS ONE, 2015)
Among all 310,000 compounds or so, about 14,000 (4.5%) showed an effect of 50% or more. Effects have a minus sign here. Some of the results follow.

target: human ether-à-go-go-related gene (hERG) potassium channel (human, UniProt Q12809); experiment: primary screen, population patch clamp on CHO cells stably expressing hERG
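Note: peak tail current of the secondary pulse compared with the same well before compound.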

Chain of human ether-à-go-go-related gene (hERG) potassium channel (Q12809 whole entry, looked up): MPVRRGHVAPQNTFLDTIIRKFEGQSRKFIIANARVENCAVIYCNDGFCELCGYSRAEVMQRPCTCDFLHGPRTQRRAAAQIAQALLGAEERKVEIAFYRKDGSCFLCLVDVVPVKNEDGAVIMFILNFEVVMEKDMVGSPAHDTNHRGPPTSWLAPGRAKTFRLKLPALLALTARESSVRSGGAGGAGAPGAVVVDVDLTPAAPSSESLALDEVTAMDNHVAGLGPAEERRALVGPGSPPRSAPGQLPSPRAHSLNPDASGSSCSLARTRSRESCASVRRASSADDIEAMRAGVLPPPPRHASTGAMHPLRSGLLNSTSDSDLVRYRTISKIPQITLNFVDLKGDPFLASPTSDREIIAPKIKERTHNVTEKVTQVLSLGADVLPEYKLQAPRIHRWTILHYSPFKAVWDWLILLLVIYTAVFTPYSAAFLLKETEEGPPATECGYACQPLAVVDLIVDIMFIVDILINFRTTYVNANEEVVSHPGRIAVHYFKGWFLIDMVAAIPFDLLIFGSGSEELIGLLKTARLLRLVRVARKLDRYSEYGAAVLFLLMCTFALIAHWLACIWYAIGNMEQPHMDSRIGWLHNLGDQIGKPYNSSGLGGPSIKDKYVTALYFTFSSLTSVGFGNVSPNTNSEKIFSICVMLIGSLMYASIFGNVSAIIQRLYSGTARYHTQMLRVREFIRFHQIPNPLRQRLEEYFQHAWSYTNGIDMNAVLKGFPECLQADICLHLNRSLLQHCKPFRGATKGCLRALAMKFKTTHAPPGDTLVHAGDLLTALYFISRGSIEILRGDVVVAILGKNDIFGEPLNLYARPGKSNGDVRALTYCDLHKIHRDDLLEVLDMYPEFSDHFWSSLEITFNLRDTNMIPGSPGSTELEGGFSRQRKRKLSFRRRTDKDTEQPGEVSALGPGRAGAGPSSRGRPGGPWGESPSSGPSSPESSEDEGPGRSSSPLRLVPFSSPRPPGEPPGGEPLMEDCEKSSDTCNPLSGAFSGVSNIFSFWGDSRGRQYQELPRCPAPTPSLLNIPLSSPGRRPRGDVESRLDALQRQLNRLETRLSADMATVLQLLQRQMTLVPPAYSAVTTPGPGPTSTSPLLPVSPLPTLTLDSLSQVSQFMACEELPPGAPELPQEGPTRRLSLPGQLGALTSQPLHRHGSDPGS

In order of rising “hERG current change (%, negative = inhibition) at 10uM” value:
1. CCN(CC)CCn1c(=S)[nH]c2ccc(Cl)cc2c1=O  -60.8%
2. CCN1CCN(C(c2ccccn2)c2c(NC(=O)c3ccccc3)sc(C)c2C)CC1 (stereo not drawn)  -59.8%
3. CN(C)c1nccc(N(Cc2ccccc2)Cc2ccccc2)c1C#N  -58.3%
4. CCOC(=O)N1CCN(Cc2nc3cc(NC(=O)c4ccco4)ccc3n2CC)CC1  -58%
5. COc1cc(N/C(N)=N/c2nc(C)cc(C)n2)c(OC)cc1Cl  -56.7%
6. CCCCN(C)CCNC(=O)c1cc2c(-c3cccc(OC)c3)nn(C)c2s1  -49.5%
7. CCCCCn1c(CN2CCCCC2CC)nc2c1c(=O)n(C)c(=O)n2C (stereo not drawn)  -44.7%
8. CCN(CC)c1c([N+](=O)[O-])c(=O)n(C)c2ccccc12  -42.1%
9. C1=CCC(CN2CCN(C3CCCCCC3)CC2)CC1.O=C(O)C(=O)O (stereo not drawn)  -40.1%
10. O=C(CN1CCCCCC1)N/N=C/c1cccc(Cl)c1Cl  -38.5%
11. O=C(Nc1ccc(S(=O)(=O)C(F)F)cc1)c1cccc(S(=O)(=O)N2CCOCC2)c1  -36.8%
12. COc1ccc(S(=O)(=O)N2CCCCCC2)cc1NC(=O)CN1C(=O)NC(C)(c2ccccc2)C1=O (stereo not drawn)  -31.4%
13. CCCCCC1CC(=O)N(Cc2ccccc2)C(=O)N1 (stereo not drawn)  -21.7%
14. CN1C(=O)C(Cc2nc3ccccc3c(=O)n2-c2ccccc2)c2ccccc21 (stereo not drawn)  -21.1%
15. O=C(CSc1nnc(-c2ccccc2Br)o1)N1CCc2ccccc2C1  -19.9%
16. CCCSc1nsc(NC(=O)CCC)n1  -19.7%
17. CCc1ccc(C(=O)CSc2nnc(C3CC3)n2C2CC2)cc1  -16.4%
18. O=C(CCN1C(=O)c2ccccc2C1=O)NCc1ccc(F)cc1  -15.5%
19. CN(C)S(=O)(=O)c1cccc(-c2nnc(SCc3cc(Cl)cc4c3OCOC4)n2N)c1  -13.8%
20. c1ccc(CC2CCN(c3nnnn3-c3ccccc3)CC2)cc1  -13.1%
21. COc1ccc(N(CC(=O)Nc2ccc(F)cc2)S(=O)(=O)c2ccccc2[N+](=O)[O-])c(OC)c1  -12.2%
22. Nc1nnc(CC(=O)N/N=C/c2ccc(-c3ccccc3)o2)s1  -11.4%
23. COCCNC(=S)N1CCN(C(=O)C(=O)Nc2ccc(C(=O)OC)cc2)CC1  -11.4%
24. CCOc1cc(C(=O)N2CCC(CC3CC(c4ccccc4)=NO3)(C(=O)NCc3ccc(OC)cc3)CC2)cc(OCC)c1OCC (stereo not drawn)  -8.88%
25. Nc1c(N(CCC2=CCCCC2)C(=O)COc2ccc(F)cc2)c(=O)[nH]c(=O)n1Cc1ccccc1  -6.12%
26. COc1ccc(OCc2cn3c(C)cc(C)nc3n2)cc1  -6.1%
27. COc1ccc(-c2cc(C(=O)OCC(=O)N(C)C)c3ccccc3n2)cc1  -5.96%
28. Nc1ncccc1OCc1ccc(Cl)c(Cl)c1  -5.85%
29. COC(=O)Cc1ccc(NC(=S)NCCCO)cc1  -4%
30. CCCCC(=O)Nc1ccc(NCc2ccc(C)s2)cc1  -2.79%
31. CC(=O)c1cc(C#N)c(N(C)Cc2ccccc2)nc1C  -2.52%
32. COc1cc(NC(=O)COn2nnc3ccc(S(C)(=O)=O)cc32)cc(OC)c1  -0.99%
33. Nc1nonc1C(=O)NCCNC(=O)c1cccc(Cl)c1  -0.0265%
34. CCCCCCc1nnc(NC(=O)c2ccco2)s1  0.398%
35. CC(C)CCn1nnnc1C(C(C)C)N1CCC(C(N)=O)CC1 (stereo not drawn)  0.86%
36. CN(C)c1oc(-c2ccccc2F)nc1C#N  1.1%
37. Cc1cc(C)n(-c2nc(NCCO)c3c4c(sc3n2)CCCC4)n1  1.39%
38. C[C@@H]1NS(=O)(=O)[C@H]2C[C@@H]3C=C[C@]2(O3)[C@H]1OC(=O)c1ccc(C(C)(C)C)cc1  1.88%
39. Cc1ccccc1NC(=O)Cn1c(C)nc2ccc(NC(=O)C3CC3)cc2c1=O  2.37%
40. COC(=O)c1[nH]c(C)c(/C(O)=C2\C(=O)C(=O)N(CCCN3CCOCC3)C2c2ccccn2)c1C (stereo not drawn)  2.5%
41. CCC(=O)N1CCN(c2cc(C)ccc2C)CC1  3.22%
42. O=C1CN(C(=O)CSc2nnnn2C2CC2)c2ccccc2N1  3.3%
43. CCN(CC)c1ccc(NC(=O)c2ccc(NC(=O)C3CCCO3)cc2)c(C)c1 (stereo not drawn)  3.37%
44. Nc1ccc(-c2sc(N)nc2-c2ccccc2)cc1  3.8%
45. CCCCCCC1CC(CCC(=O)Nc2ccc([N+](=O)[O-])cc2)C(=O)O1 (stereo not drawn)  3.95%
46. COc1ccc(C)cc1-n1nnnc1SCC(=O)c1ccc2c(c1)OCCO2  4.19%
47. COc1cc(CC(=O)O)ccc1OCc1ccccc1  4.35%
48. CCN(CC)CC.Cc1nnc(SCC(=O)NCc2ccc3c(c2)OCO3)[nH]c1=O.Cl  4.46%
49. COc1ccccc1NC(=O)N1CCCC1C(=O)NCc1ccccc1 (stereo not drawn)  4.77%
50. COC(=O)[C@@H](NC(=O)c1ccccc1OC1CCN(S(C)(=O)=O)CC1)C(C)C  4.81%
51. CCNc1ccc(C(=O)N/N=C/c2c(C)nn(-c3ccccc3)c2N2CCCC2)cc1[N+](=O)[O-]  5.02%
52. O=C(COC(=O)/C=C/c1cccc([N+](=O)[O-])c1)Nc1ccc(Cl)cn1  5.09%
53. Cc1cc(/C=C(\C#N)C(=O)OCC(=O)NC(=O)NC(C)(C)C)c(C)n1CCC(C)C  5.62%
54. CN(C)C(=O)N1CCC(C(=O)NCc2ccc(F)cc2)CC1  5.64%
55. CCOc1cc(S(=O)(=O)Nc2ccccn2)ccc1F  5.69%
56. COC(=O)c1ccc(C2/C(=C(/O)c3ccc4c(c3)CC(C)O4)C(=O)C(=O)N2CCN2CCOCC2)cc1 (stereo not drawn)  5.74%
57. Cc1ccc(OCC(=O)N/N=C/c2ccncc2)cc1C  5.75%
58. Cc1nc2c(sc(=S)n2Cc2ccco2)c(=O)n1CC(=O)Nc1ccccc1F  6.02%
59. CCc1nnc(NC(=O)Cn2nc(-c3ccccc3OC)ccc2=O)s1  6.05%
60. O=C(Cc1ccc(NC2=NC3CS(=O)(=O)CC3S2)cc1)NCCc1ccccc1 (stereo not drawn)  6.22%
61. Cc1cc(CCN2CCC(=O)NC2=O)ccc1OC(C)C  6.24%
62. COc1ccc(NC(=O)Nc2ccc(C(=O)N3CCOCC3)cc2)cc1  6.27%
63. O=C1C=C(c2ccc3c(c2)OCO3)CCC1  6.65%
64. O=C(O)CCC(=O)N1N=C(c2ccccc2)CC1c1ccc(Br)cc1 (stereo not drawn)  6.7%
65. CC(=O)N1c2ccccc2NC2=C(C(=O)CC(C)(C)C2)C1c1cccn1C (stereo not drawn)  6.95%
66. CC(C)(C)NC(=O)CN(Cc1ccc2c(c1)OCO2)C(=O)CCC(=O)Nc1nccs1  8.01%
67. Cc1cccc(OCC(=O)OCC(=O)N2CCCc3ccccc32)c1C  8.81%
68. Cc1cc(-c2onc(C)c2C(=O)O)no1  9.99%
69. Cc1ccc(C(=O)C[n+]2ccc(-c3nnc4n3CCC4)cc2)cc1.[Br-]  10.4%
70. CC(=O)c1cccc(OC(=O)C2=CC=CN3CCS(=O)(=O)N=C23)c1  10.4%
71. CC(C)c1ccccc1N=C1SCCCN1C(=O)c1cccc(N2C(=O)CCC2=O)c1  11.2%
72. CC(=O)Nc1c2c(nn1-c1ccccc1)CSC2  11.8%
73. N#C/C(=C\c1ccccc1)C(=O)Nc1ccccn1  12.7%
74. O=C(COc1ccc2c(-c3ccccc3)cc(=O)oc2c1)Nc1ccc(CN2CCOCC2)cc1  13.3%
75. CCCC(CCC)C(=O)NNc1cc(=O)c2c(=O)n(C)c(=O)n(C)c2[nH]1  13.5%
76. CCOc1cccc2sc(N(CCCN(C)C)C(=O)c3ccc(S(=O)(=O)N4CCc5ccccc5C4)cc3)nc12.Cl  13.7%
77. C[N+](C)(C)CCCCCC(=O)/C=N/O.[I-]  14.1%
78. Cc1sc(C(=O)Nc2ccc3ccccc3c2)cc1CC(=O)O  16.9%
79. S=C(Nc1ccccc1)Nc1nc2ccccc2n1CCOc1ccc(Cl)cc1  17.2%
80. Cc1ccc(S(=O)(=O)Nc2cc3c(C(=O)O)c(C)oc3c3ccccc23)c(C)c1  17.5%
81. COc1ccc(N2CC(C(=O)N[C@@H](C)C(=O)N[C@H](CO)c3ccccc3)CC2=O)cc1 (stereo partly drawn)  17.6%
82. CN1CCN(c2ccc(C(=O)c3cn(-c4ccc(F)c(Cl)c4)nn3)cc2)CC1  17.7%
83. Cc1ccc(-c2csc3nc[nH]c(=O)c23)cc1C  18.3%
84. Cc1ccc(-c2n[nH]c(=S)n2/N=C/c2ccc(C)s2)cc1  20%
85. Cc1cccc(C)c1OCC(=O)Nc1c(C)nn(C)c1C  22.8%
86. COc1ccc(OC)c(NC(=O)Nc2ccc3c(c2)OCO3)c1  23.5%
87. Cc1ccc2c(=O)cc(C(=O)Nc3ccc(S(=O)(=O)Nc4onc(C)c4C)cc3)oc2c1  24.9%
